Test results taken from PubChem BioAssay (NCATS).
Where “and” joins values, the source holds several entries; their conditions need not be identical. Equal entries are not always repeated. The inconclusive results got no clear call from the source; some entries with a clear call stand among them for comparison. For some assays here: A potency beside an inconclusive call is a rough fit, not a confirmed value. Calls of active or inactive are those of the source. Unless noted, the call rests on the fitted dose curve; in most records, active means well fitted curve in the direction sought with a large enough effect; inconclusive means small, poorly fitted or top-dose-only effect, or another doubt; inactive means no such curve, though single readings can be large; an effect the other way counts as inactive or inconclusive.

Tests used:
[1] = biological target: Chromobox protein homolog 1 (Homo sapiens) (UniProt P83916); experiment: qHTS Validation Assay for Inhibitors of HP1-beta Chromodomain Interactions with Methylated Histone Tails (AID 488953); further: nearly all actives have a fitted effect of over 50% in size; further: potency means the concentration at half of the fitted maximal effect
Procedure, shortened: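 50 nM HP1-beta + 50 nM biotin-H3(1-18)K9me3, PBS pH 7.4, 0.01% Tween-20, 30 min RT; compound added, 30 min RT; AlphaScreen beads 10 ug/mL final, 30 min dark; luminescence read.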

[2] = biological target: ATP-dependent 6-phosphofructokinase (Trypanosoma brucei brucei) (UniProt O15648); experiment: qHTS Assay to Find Inhibitors of T. brucei phosphofructokinase: hit validation (AID 492961); further: potency means the concentration at half of the fitted maximal effect
Procedure, shortened: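 Luminescence from ADP-Glo reports ADP generated as T. brucei PFK (1.25 nM) phosphorylates 0.5 mM fructose-6-phosphate using 0.1 mM ATP. Reactions ran 45 min at room temperature, pH 8.0.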

[3] = Validation screen for small molecules that induce genotoxicity in human embryonic kidney (HEK293T) cells expressing luciferase-tagged ELG1 (AID 493106); further: potency means the concentration at half of the fitted maximal effect
Procedure, shortened: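 Luminescence from an ELG1-luciferase fusion serves as the read-out, rising when genetic stress elevates ELG1 protein. HEK293T reporter cells (2,000 per well) received 23 nL compound, incubated 16 hr at 37 °C, then ONE-Glo for 30 min at room temperature.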

[4] = biological target: Ubiquitin carboxyl-terminal hydrolase 1 (Homo sapiens) (UniProt O94782); experiment: Inhibitors of USP1/UAF1: Pilot qHTS (AID 504865); further: potency means the concentration at half of the fitted maximal effect;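 further: rhodamine fluorescence freed from ubiquitin-rhodamine substrate followed over time; nearly all actives have a fitted effect of over 35% in size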
Procedure, shortened: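 Deubiquitinase activity followed as kinetic rhodamine fluorescence release from 150 nM Ub-Rho. 1 nM USP1/UAF1 with compound, after 15 min room-temperature preincubation, in HEPES pH 7.8 buffer containing TCEP, EDTA, BSA and Tween-20.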

[5] = biological target: Transient receptor potential cation channel subfamily V member 1 (Homo sapiens) (UniProt Q8NER1); experiment: HTS Assay for Compounds that Act as Enhancers of the Vanilloid Receptor 1 (AID 488979); further: potency means the concentration at half of the fitted maximal effect
Procedure, shortened: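 TRPV1 cells loaded with Fluo-8 calcium dye; compound added and Ca2+ signal (ex 480/em 520 nm) followed 3 min, then capsaicin at EC20 added and read 2 more min to detect enhancement.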

[6] = biological target: D(1A) dopamine receptor (Homo sapiens) (UniProt P21728); experiment: HTS Assay for Allosteric Agonists of the Human D1 Dopamine Receptor: Primary Screen for Agonists (AID 488981); further: potency means the concentration at half of the fitted maximal effect
Procedure, shortened: (§1)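 Tetracycline-induced HEK293 Trex D1 cells with forced coupling to calcium, loaded with no-wash calcium dye; kinetic fluorescence read 180 s after compound addition for agonism, then a further 180 s after an EC20 dopamine challenge for potentiation.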

[7] = biological target: ATPase family AAA domain-containing protein 5 (Homo sapiens) (UniProt Q96QE3); experiment: Validation screen for small molecules that inhibit ELG1-dependent DNA repair in human embryonic kidney (HEK293T) cells expressing luciferase-tagged ELG1 (AID 493107); conditions: HEK293T ELG1-luciferase level, luminescence, 5-fluorouridine co-treatment, 16 h; series mostly up to 46.1 µM; further: nearly all actives have a fitted effect of over 70% in size; further: potency means the concentration at half of the fitted maximal effect
Procedure, shortened: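 Luminescence from ONE-Glo, developed 30 min at room temperature, served as read-out of ELG1-luciferase levels. Beforehand, reporter HEK293T cells received 5-fluorouridine plus test compound for 16 hr at 37 °C.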

[8] = Nrf2 qHTS screen for inhibitors: Validation (AID 493153; active means well fitted inhibition curve with a large enough effect in the main read-out, with a control signal flat, not every such curve was filed as active; inconclusive means small, poorly fitted or top-dose-only effect, or effect the other way, or a change in a side signal; inactive means no such curve, though single readings can be large or run the other way; further: potency means the concentration at half of the fitted maximal effect)
Procedure, shortened: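 Luminescence from an ARE-firefly luciferase reporter in A549 cells gives Nrf2 inhibition; an earlier CellTiter-Fluor fluorescent read flags cytotoxicity. Cells in 5% FBS OPTI-MEM received compound dilution series for 18-24 h at 37°C.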

[9] = biological target: Peptidyl-prolyl cis-trans isomerase NIMA-interacting 1 (Homo sapiens) (UniProt Q13526); experiment: qHTS Validation Assay to Find Inhibitors of Pin1 (AID 504536; active means well fitted inhibition curve with a large enough effect in the polarisation, with a control signal flat, not every such curve was filed as active; inconclusive means small, poorly fitted or top-dose-only effect, or effect the other way; the % refers to the polarisation)
Procedure, shortened: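 Fluorescence polarization competition: compounds (titration) displace HiFluor-488-labeled Pin1-1b peptide from Pin1 (0.3 uM final) in pH 7.5 HEPES buffer with DTT, 10 min at room temperature; %Activity normalized to no-enzyme wells, curves fitted.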

[10] = qHTS for Inhibitors of ATXN expression: Validation of Cytotoxic Assay (AID 588349); further: potency means the concentration at half of the fitted maximal effect
Procedure, shortened: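 Read-out: ATP-based luminescence (CellTiter Glo) reflecting viability of HEK293 cells after 72 hr incubation at 37 degrees C with a concentration series of each compound.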

[11] = qHTS for Inhibitors of ATXN expression: Validation (AID 588378); further: nearly all actives have a fitted effect of over 75% in size; further: potency means the concentration at half of the fitted maximal effect
Procedure, shortened: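 Luciferase luminescence (Bright-Glo) from an ATXN2-FFLuc HEK293 line after 24 h compound exposure at 37 °C, preceded by a CellTiter-Fluor fluorescence viability read. Serial dilutions of a reference ATXN2 inhibitor and a luciferase inhibitor served as controls.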

[12] = biological target: phosphoglycerate mutase (Leishmania major) (UniProt Q4Q090); experiment: qHTS Validation Assay to Find Inhibitors of Phosphoglycerate Mutase (AID 504548); conditions: Potency: inhibition qHTS; further: potency means the concentration at half of the fitted maximal effect
Procedure, shortened: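 Inhibition of L. major PGAM was assessed by Kinase-GloPlus luminescence following a 45-minute room-temperature reaction with enzyme at 1.25nM final.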

[13] = Inducers of the Endoplasmic Reticulum Stress Response (ERSR) in human glioma: Validation (AID 504836); further: potency means the concentration at half of the fitted maximal effect
Procedure, shortened: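 Stably transfected U87-MG glioma cells carrying a GRP78-based luciferase sensor; 16 h compound incubation. Luminescence end-point read 10 min after Bright-Glo addition at room temperature.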

[14] = biological target: Phosphoglycerate kinase, glycosomal (Trypanosoma brucei brucei) (UniProt P07378); experiment: qHTS Validation Assay to Find Inhibitors of Phosphoglycerate Kinase (AID 504547); further: potency means the concentration at half of the fitted maximal effect
Procedure, shortened: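 PGK activity was coupled to GAPDH (100nM final), which generates the unstable substrate 1,3-bisphosphoglycerate in-well. Reactions ran 60 minutes at room temperature in 100mM TEA pH 7.6, 5mM MgCl2, 0.01% Tween-20, then Kinase-Glo Plus luminescence was read.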

[15] = biological target: D(1A) dopamine receptor (Homo sapiens) (UniProt P21728); experiment: HTS Assay for Allosteric Agonists of the Human D1 Dopamine Receptor: Primary Screen for Potentiators (AID 488982)
Procedure, shortened: as §1

[16] = Validation screen for small molecules that induce DNA re-replication in SW480 colon adenocarcinoma cells (AID 504364); further: potency means the concentration at half of the fitted maximal effect
Procedure, shortened: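 250 cells/well; compound pinned in; 48 hr, 37 C, 5% CO2; Hoechst added, 40 min; nuclear fluorescence imaged, 405 ex / 500-530 em; re-replication scored as increase in high-intensity nuclei.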

[17] = biological target: Methanococcus maripaludis chaperonin (MmCpn) (UniProt Q6LX38); experiment: High-Throughput Screening for Modulators of Cytosolic Chaperonin Activity: MmCpn Primary Screen (AID 488978); conditions: Purified MmCpn ATPase activity, ADP HTRF detection, 10 min; further: potency means the concentration at half of the fitted maximal effect
Procedure, shortened: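 ATPase activity of 50 nM MmCpn was assayed with 30 uM ATP, 10 minutes at 37C, after a 5 min compound preincubation at room temperature. ADP production was read as HTRF emission at 590 and 665 nm.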
Tags describe the fitted curve by direction and shape.

Chain of UniProt P83916 (P83916 whole entry, looked up): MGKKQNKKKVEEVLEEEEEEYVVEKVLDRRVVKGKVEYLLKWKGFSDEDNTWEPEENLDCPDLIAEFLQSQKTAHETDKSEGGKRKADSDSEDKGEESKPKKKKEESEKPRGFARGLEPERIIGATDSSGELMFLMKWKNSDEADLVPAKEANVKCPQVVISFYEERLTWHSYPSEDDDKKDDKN
Chain of UniProt O94782 (O94782 whole entry, looked up): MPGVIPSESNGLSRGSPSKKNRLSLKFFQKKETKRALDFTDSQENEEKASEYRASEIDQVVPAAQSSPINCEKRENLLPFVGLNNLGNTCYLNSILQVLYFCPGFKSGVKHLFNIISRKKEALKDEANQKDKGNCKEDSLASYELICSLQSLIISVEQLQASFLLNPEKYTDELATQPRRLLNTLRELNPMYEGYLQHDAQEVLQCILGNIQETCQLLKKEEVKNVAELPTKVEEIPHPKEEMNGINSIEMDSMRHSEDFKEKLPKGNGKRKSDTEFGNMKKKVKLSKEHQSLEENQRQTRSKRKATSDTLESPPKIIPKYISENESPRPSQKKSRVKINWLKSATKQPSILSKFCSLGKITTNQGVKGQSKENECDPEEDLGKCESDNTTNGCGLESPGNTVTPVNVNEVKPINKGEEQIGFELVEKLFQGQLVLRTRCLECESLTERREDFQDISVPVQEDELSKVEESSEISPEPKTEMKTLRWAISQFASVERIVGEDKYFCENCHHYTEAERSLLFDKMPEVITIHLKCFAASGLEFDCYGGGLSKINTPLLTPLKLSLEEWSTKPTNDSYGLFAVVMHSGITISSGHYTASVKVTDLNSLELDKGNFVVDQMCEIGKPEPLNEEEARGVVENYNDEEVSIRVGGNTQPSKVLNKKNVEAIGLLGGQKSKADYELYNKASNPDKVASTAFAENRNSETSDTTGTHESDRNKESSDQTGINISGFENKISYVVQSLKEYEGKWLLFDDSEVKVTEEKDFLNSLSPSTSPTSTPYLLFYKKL
Chain of UniProt Q96QE3 (Q96QE3 whole entry, looked up, the tested form may be a part): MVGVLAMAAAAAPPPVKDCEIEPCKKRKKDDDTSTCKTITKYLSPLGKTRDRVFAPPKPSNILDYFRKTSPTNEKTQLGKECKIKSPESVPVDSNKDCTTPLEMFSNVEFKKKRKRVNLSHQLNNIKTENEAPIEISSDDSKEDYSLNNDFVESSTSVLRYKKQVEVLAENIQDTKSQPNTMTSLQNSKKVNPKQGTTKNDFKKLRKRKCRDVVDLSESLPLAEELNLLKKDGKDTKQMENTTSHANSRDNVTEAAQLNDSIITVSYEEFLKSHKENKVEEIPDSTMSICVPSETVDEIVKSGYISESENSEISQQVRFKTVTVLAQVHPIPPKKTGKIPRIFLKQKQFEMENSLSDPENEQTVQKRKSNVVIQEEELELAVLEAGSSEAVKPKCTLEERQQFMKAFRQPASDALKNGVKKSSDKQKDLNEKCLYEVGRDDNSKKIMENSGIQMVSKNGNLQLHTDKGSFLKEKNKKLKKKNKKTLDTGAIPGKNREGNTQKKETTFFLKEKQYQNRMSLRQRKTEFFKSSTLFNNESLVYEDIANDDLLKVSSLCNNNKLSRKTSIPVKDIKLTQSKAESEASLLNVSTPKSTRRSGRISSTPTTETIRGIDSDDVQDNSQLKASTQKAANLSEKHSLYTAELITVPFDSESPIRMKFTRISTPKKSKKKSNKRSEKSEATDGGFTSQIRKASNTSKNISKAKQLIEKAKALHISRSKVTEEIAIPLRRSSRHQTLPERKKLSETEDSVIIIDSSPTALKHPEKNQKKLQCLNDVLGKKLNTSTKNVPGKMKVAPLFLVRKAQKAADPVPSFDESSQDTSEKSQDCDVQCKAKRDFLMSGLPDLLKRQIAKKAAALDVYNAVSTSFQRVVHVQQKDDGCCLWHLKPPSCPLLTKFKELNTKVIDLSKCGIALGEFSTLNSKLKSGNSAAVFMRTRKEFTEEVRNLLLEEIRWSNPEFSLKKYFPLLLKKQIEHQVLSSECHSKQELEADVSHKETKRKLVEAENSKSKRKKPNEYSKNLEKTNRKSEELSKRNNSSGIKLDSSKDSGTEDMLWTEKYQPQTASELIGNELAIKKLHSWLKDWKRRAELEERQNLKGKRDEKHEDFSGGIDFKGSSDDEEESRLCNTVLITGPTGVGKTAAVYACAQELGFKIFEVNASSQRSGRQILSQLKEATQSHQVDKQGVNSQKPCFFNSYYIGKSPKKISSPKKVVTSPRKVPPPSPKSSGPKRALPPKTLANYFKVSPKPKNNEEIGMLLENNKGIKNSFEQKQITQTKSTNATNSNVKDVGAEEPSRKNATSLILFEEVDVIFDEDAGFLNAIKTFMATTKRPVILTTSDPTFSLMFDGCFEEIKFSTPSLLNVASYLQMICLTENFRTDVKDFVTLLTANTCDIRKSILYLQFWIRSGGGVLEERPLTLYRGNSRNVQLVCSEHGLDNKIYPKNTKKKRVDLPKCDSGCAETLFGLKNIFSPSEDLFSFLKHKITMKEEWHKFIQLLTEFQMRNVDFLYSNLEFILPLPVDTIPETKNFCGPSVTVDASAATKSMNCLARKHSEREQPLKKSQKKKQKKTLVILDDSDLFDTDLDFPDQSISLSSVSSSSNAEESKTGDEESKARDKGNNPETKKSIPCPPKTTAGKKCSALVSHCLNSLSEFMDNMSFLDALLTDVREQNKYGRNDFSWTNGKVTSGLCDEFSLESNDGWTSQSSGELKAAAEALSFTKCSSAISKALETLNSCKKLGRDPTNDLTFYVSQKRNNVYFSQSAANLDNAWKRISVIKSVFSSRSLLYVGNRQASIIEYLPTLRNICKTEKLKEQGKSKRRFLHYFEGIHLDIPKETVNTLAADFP
Chain of UniProt P21728 (P21728 whole entry, looked up): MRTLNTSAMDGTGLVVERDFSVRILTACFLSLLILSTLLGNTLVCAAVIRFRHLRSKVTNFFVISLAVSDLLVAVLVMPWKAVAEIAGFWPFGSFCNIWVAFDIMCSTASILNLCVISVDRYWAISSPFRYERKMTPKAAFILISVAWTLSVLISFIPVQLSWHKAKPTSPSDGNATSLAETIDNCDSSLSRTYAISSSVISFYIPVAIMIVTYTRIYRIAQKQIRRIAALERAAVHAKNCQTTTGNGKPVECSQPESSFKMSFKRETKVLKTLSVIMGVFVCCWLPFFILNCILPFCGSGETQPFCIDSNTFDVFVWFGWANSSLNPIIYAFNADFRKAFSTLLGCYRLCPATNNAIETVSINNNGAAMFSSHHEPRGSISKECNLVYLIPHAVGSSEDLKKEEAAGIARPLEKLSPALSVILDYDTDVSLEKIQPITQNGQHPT
Chain of UniProt Q13526 (Q13526 whole entry, looked up): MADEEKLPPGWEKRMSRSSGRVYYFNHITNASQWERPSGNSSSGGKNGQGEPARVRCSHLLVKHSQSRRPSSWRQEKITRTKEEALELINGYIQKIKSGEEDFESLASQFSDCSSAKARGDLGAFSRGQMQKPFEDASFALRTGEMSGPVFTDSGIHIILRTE
Chain of UniProt O15648 (O15648 whole entry, looked up): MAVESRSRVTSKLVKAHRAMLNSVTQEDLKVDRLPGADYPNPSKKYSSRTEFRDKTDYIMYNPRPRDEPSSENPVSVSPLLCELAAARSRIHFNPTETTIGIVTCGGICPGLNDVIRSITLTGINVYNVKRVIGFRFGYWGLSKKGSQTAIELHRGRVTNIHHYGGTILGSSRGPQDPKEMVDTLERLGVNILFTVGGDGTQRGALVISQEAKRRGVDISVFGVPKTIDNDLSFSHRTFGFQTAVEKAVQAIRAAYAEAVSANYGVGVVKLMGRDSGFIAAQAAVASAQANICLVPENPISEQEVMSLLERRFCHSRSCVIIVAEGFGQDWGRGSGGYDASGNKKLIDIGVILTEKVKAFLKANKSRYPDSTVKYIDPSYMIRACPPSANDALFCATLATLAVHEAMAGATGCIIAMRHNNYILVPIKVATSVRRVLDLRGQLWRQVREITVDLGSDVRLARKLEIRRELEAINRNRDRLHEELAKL
Chain of UniProt Q8NER1 (Q8NER1 whole entry, looked up): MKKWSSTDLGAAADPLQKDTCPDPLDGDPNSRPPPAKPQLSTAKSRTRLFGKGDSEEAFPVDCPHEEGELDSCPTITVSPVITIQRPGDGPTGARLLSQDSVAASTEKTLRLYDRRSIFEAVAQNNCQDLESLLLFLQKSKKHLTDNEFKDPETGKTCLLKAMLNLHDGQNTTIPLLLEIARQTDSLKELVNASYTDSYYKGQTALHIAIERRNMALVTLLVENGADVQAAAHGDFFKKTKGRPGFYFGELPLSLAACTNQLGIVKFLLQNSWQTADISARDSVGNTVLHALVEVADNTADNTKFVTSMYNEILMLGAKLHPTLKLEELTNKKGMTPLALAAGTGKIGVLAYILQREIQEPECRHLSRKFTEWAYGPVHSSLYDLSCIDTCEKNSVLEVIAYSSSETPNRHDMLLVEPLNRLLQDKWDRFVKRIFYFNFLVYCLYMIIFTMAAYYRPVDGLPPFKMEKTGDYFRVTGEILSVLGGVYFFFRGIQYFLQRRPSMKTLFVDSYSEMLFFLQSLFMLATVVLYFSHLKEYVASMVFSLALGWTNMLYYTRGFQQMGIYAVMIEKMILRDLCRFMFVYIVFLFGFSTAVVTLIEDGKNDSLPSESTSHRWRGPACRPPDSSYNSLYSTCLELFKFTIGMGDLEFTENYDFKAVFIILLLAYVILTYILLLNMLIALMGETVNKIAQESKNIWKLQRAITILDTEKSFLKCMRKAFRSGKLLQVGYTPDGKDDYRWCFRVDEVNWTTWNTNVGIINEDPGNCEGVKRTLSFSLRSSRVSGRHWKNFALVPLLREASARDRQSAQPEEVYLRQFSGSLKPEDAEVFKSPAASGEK

SMILES: Cn1ccc2cc3c(cc21)CCN3C(=O)Nc1cccnc1
- Potency [1]: active: 39.8 µM
- Potency [2]: inconclusive: 31.6 µM [activator, partial curve]
- Potency [3]: inconclusive: 3.26 µM [activator, single point]
- Potency [4]: inconclusive: 79.4 µM [inhibitor, partial curve, poor fit] and inconclusive: 39.8 µM [inhibitor, partial curve, poor fit]

SMILES: CC1=C(CC(=O)O)c2cc(F)ccc2/C1=C\c1ccc(S(C)=O)cc1 (centres undefined)
- Potency [1]: inconclusive: 35.5 µM [inhibitor, partial curve]

SMILES: OCc1cc(C(O)CNCCCCCCOCCCCc2ccccc2)ccc1O (centres undefined)
- Potency [1]: inconclusive: 79.4 µM [inhibitor, partial curve, poor fit]
- Potency [5]: inconclusive: 20 µM [activator, single point]
- Potency [6]: inconclusive: 22.4 µM [activator, single point]
- Potency [7]: inactive
- Potency [8]: inconclusive: 20.6 µM [inhibitor, partial curve, poor fit]
- Potency [9]: inactive
- Potency [4]: inactive
- Potency [10]: inconclusive: 17.8 µM [cytotoxic, partial curve, poor fit]
- Potency [11]: inconclusive: 12.6 µM [inhibitor, partial curve, poor fit]

SMILES: O=Nc1c(-c2c(O)[nH]c3ccccc23)[nH]c2ccccc12
- Potency [1]: active: 3.98 µM
- Potency [3]: inconclusive: 3.26 µM [activator, single point]
- Potency [7]: inconclusive: 29.1 µM [inhibitor, single point]
- Potency [9]: inactive
- Potency [12]: inconclusive: 37.9 µM [inhibitor, single point]
- Potency [13]: inconclusive: 1.17 µM [activator, partial curve, poor fit]
- Potency [4]: inconclusive: 79.4 µM [inhibitor, partial curve, poor fit]
- Potency [11]: inconclusive: 20 µM [inhibitor, single point]

SMILES: CN=c1nc(-c2ccccc2)n(-c2ccccc2)s1
- Potency [1]: active: 12.6 µM
- Potency [3]: inconclusive: 16.4 µM [activator, partial curve, poor fit]
- Potency [7]: inconclusive: 32.6 µM [inhibitor, single point]
- Potency [8]: inconclusive: 0.651 µM [falling, partial curve]
- Potency [12]: inconclusive: 21.3 µM [inhibitor, single point]
- Potency [10]: inconclusive: 31.6 µM [cytotoxic, single point]
- Potency [11]: inconclusive: 25.1 µM [inhibitor, single point]

SMILES: COC1(C2=NCCN2)COc2ccccc2O1 (centres undefined)
- Potency [1]: inconclusive: 8.44 µM [inhibitor, single point]

SMILES: CN1CCc2cc(NC(=O)Nc3cccnc3)ccc21
- Potency [1]: inconclusive: 89.1 µM [inhibitor, single point]
- Potency [3]: inconclusive: 20.6 µM [activator, single point]
- Potency [7]: inconclusive: 9.2 µM [activator, partial curve]

SMILES: Cc1cccc(C#Cc2ccccc2)n1
- Potency [1]: inconclusive: 44.7 µM [inhibitor, partial curve]
- Potency [3]: active: 8.2 µM
- Potency [7]: inconclusive: 8.2 µM [activator, partial curve]
- Potency [14]: inconclusive: 37.9 µM [inhibitor, single point]
- Potency [12]: inconclusive: 23.9 µM [inhibitor, single point]
- Potency [11]: inactive

SMILES: O=C(O)CN(CCOCCOCCN(CC(=O)O)CC(=O)O)CC(=O)O
- Potency [1]: inactive

SMILES: O=C1/C(=C/c2ccsc2)CC/C1=C\c1cccs1
- Potency [1]: inconclusive: 15.8 µM [inhibitor, partial curve]
- Potency [3]: active: 23.1 µM
- Potency [12]: inconclusive: 37.9 µM [inhibitor, single point]

SMILES: NC(=O)c1cn(Cc2c(F)cccc2F)nn1
- Potency [1]: active: 0.006 µM
- Potency [15]: inactive

SMILES: CCN(CC)C(=S)SSC(=S)N(CC)CC
- Potency [1]: active: 28.2 µM
- Potency [3]: active: 18.3 µM
- Potency [7]: inconclusive: 3.66 µM [inhibitor, partial curve, poor fit]
- Potency [16]: active: 0.206 µM
- Potency [10]: inconclusive: 31.6 µM [cytotoxic, single point]
- Potency [11]: inconclusive: 35.5 µM [inhibitor, single point]

SMILES: O=Nc1c(-c2c(O)[nH]c3cc(Br)ccc23)[nH]c2ccccc12
- Potency [1]: active: 2.82 µM
- Potency [17]: inconclusive: 79.4 µM [inhibitor, single point]
- Potency [3]: active: 0.92 µM
- Potency [7]: inconclusive: 29.1 µM [inhibitor, single point]
- Potency [14]: inconclusive: 23.9 µM [inhibitor, partial curve, poor fit]
- Potency [12]: active: 21.3 µM
- Potency [13]: inconclusive: 0.414 µM [activator, full curve, poor fit]
- Potency [10]: inconclusive: 3.98 µM [cytotoxic, full curve, poor fit]
